In PubChem BioAssay AID1346428 (National Center for Advancing Translational Sciences (NCATS), 2018):
Values joined by “and” are separate entries in the source; they are usually repeats but may differ in a detail not shown here. Equal entries are not always repeated. The whole screen tested about 48,000 compounds, of which about 1,200 (2.5%) were called active. Another 2% or so got no clear call; they are omitted.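 The calls were made as follows: active = activation of at least 60% and not above a set upper limit (about 1 call in 100 departs from these limits); inconclusive = activation of 40% to 60%, or above that upper limit; inactive = activation under 40%.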 This is one part of the list.

molecular target: Probable G-protein coupled receptor 32 (Homo sapiens) (UniProt O75388); test: qHTS for Agonists of Human Resolvin D1 Receptor DRV1; settings: CHO-K1 GPR32 beta-arrestin PathHunter luminescence, 90 min; at 76.9 µM; hits give high values; zero percent set by DMSO-only wells; also: 0% is about no effect
Sequence of UniProt O75388 (O75388 whole entry, looked up): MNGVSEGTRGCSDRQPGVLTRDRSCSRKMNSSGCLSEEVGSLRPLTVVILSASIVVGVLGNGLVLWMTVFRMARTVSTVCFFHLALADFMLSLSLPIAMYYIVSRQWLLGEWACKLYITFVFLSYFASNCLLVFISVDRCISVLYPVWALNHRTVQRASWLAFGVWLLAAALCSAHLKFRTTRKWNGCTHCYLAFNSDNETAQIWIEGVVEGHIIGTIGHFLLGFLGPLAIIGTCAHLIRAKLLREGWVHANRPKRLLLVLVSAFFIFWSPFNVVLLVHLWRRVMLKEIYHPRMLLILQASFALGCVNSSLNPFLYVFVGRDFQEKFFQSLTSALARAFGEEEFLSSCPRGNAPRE
In short: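 Cells are plated overnight, treated with compounds in DMSO for 90 minutes at 37 °C, and developed with PathHunter detection reagent for 1 hour before luminescence is read; signal reflects beta-arrestin binding to GPR32 in engineered CHO-K1 cells.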

| SMILES | activation |
| --- | --- |
| CC(C)c1ccc(S(=O)(=O)c2nnn3c2nc(NCCc2ccccc2)c2sccc23)cc1 | inactive: -13.5% |
| Cc1nn(C(=O)c2cccc([N+](=O)[O-])c2C)c(C)c1S(=O)(=O)N1CCOCC1 | inactive: -2.09% |
| CC(=O)Nc1ccc(S(=O)(=O)NCC2CCC(C(=O)NCCc3ccccc3)CC2)cc1 (stereo not drawn) | inactive: 0.178% |
| COc1cc(-c2ccno2)ccc1S(=O)(=O)N1CCN(c2cc(C)ccc2C)CC1 | inactive: -17.5% |
| COCC(=O)Oc1c(Sc2ccc(C)cc2)c(C)nn1C(C)(C)C | inactive: 37.4% |
| CCO[C@H](Cc1ccc(OCCc2ccc(OS(C)(=O)=O)cc2)cc1)C(=O)O | active: 75.6% |
| Cc1ccc(NC(=O)CC(C)S(=O)(=O)c2ccc3c(c2)NC(=O)CO3)c(C)c1 (stereo not drawn) | active: 73.9% |
| Cc1cc(C)cc(Oc2nc3c(C)cccn3c(=O)c2/C=C(\C#N)c2nc3ccccc3[nH]2)c1 | inactive: 12.8% |
| COc1cccc(N2CC(NC(=O)C(c3ccccc3)c3ccccc3)CC2=O)c1 (stereo not drawn) | inactive: -14.9% |
| c1cnc2cc3c(cc2n1)C1CNCC3C1 | inactive: 4.53% |
| COc1ccccc1/C=C/c1nc(C#N)c(N2CCCCC2)o1 | inactive: -30.1% |
| Cc1ccc2nc(-c3ccsc3)c(Nc3ccccc3C)n2c1 | inactive: -30.5% |
| COCCNC(=O)Cc1ccc(NC(=O)N2CCCCc3ccccc32)cc1 | inactive: -0.559% |
| O=C(NCc1ccc(F)cc1)c1ccc(CSCc2cccc(Cl)c2)o1 | inactive: 22.1% |
| O=C1c2ccccc2C(=O)C1(c1ccccc1)N1CCN(c2cccc(Cl)c2)CC1 | inactive: -19.8% |
| Cc1ccc(N2CC(NC(=O)/C=C\c3ccc4c(c3)OCO4)CC2=O)cc1C (stereo not drawn) | inactive: -4.93% |
| Cc1ccc(-c2cc(C(F)(F)F)n3nc(C(=O)Nc4ccc(Cl)cc4Cl)cc3n2)cc1 | inactive: -0.257% |
| Cc1ccc(NC(=O)CSc2ncc3c(n2)-c2ccccc2N(Cc2cccc(F)c2)S3(=O)=O)cc1F | inactive: -8.54% |
| Cn1cc(CN(C(=O)Nc2ccc(Cl)c(Cl)c2)C2CCCCC2)c2ccccc21 | inactive: -5.88% |
| COCCNC(=O)c1cnn(-c2ccc(C)cc2C)c1C1CCN(C(=O)OC(C)(C)C)CC1 | inactive: -1.26% |
| COc1ccc(-n2c(/C=C/c3ccccc3F)nc3cc(OC)c(OC)cc3c2=O)cc1Cl | inactive: -20.1% |

| SMILES | activation |
| --- | --- |
| COC(=O)c1scc(-c2ccccc2)c1S(=O)(=O)Nc1ccccc1 | inactive: -0.985% |
| Cc1ccccc1Cn1c(C(=O)O)c(CNCc2cccc(F)c2)c2ccccc21 | inactive: -13.7% |
| COc1ccccc1N1CCN(C(=O)Cn2ncc3c([nH]c4ccccc43)c2=O)CC1 | inactive: -20.5% |
| CCOC(=O)c1ccccc1NC(=O)Cn1c(=O)n(Cc2nc(-c3ccccc3)no2)c(=O)c2ccccc21 | inactive: -12.2% |
| Cc1ccc(CNC(=O)CCCCn2c(=O)c3ccccc3n(Cc3c(C)cc(C)cc3C)c2=O)cc1 | inactive: 1.54% |
| COc1cccc(NC(=O)CSC2=Nc3ccccc3C3=NC(CC(=O)NCCc4ccccc4)C(=O)N23)c1 (stereo not drawn) | inactive: -2.47% |
| CCOCCCNC(=O)NC(C)c1c(-n2cccc2)sc2c1CCN(CC)C2 (stereo not drawn) | inactive: -7.67% |
| COc1ccc(OC)c(S(=O)(=O)N2CCC(c3ccncc3)CC2)c1 | inactive: 3.09% |
| C[C@]12C[C@H](O)[C@H]3[C@@H](CCC4=CC(=O)CC[C@@]43C)[C@@H]1CC[C@@H]2C(=O)CO | inactive: -43.1% and inactive: -5.05% |
| CCc1ccc(C(=O)c2cn(CC(=O)NCCc3ccc(OC)c(OC)c3)c3nc(C)ccc3c2=O)cc1 | inactive: 23% |
| COc1cccc(NC(=O)CSC2=Nc3ccccc3N=C(c3ccc(F)cc3)C2)c1 | inactive: -40.9% |
| O=C(c1ccc2c(c1)N(Cc1ccccc1F)C(=O)c1ccccc1S2(=O)=O)N1CCCCC1 | inactive: -9.51% |
| CCc1ccc(-n2c(SCc3ccccc3F)nc3[nH]ncc3c2=O)cc1 | inactive: -44.9% |
| O=C(CCc1nc(CN2CCN(S(=O)(=O)c3ccc(F)cc3)CC2)no1)N1CCCCC1 | inactive: 4.32% |
| O=C1c2[nH]nc(-c3ccccc3O)c2C(c2ccc(Cl)cc2)N1Cc1ccco1 (stereo not drawn) | inactive: 30.6% |
| COc1ccccc1NC(=O)Cn1c(=O)n(-c2cccc(C(C)=O)c2)c(=O)c2c3c(sc21)CN(C(C)=O)CC3 | inactive: -0.0168% |
| O=C(CCC1N=C2c3ccccc3N=C(SCC(=O)Nc3ccccc3F)N2C1=O)NCc1ccccc1 (stereo not drawn) | inactive: -13.9% |
| Cc1ccc(C2C=C(c3ccc(Cl)cc3)Nc3nc(NS(=O)(=O)c4ccccc4)nn32)cc1 (stereo not drawn) | active: 73% |
| CCN1CCN(C(=O)c2cnn(-c3ccc(F)cc3)c2-n2cccc2)CC1 | inactive: -1.17% |
| O=C(NC1CCCCC1)c1cc(Nc2cccc(C(F)(F)F)c2)nc2ccccc12 | inactive: 7.13% |
| COc1cc(NC(=O)c2noc3c2CSc2ccccc2-3)cc(OC)c1OC | inactive: -16% |

| SMILES | activation |
| --- | --- |
| Cc1ccn2c(=O)cc(CSc3nnc(NC(=O)c4ccccc4Cl)s3)nc2c1 | inactive: -1.49% |
| COc1cc(C(=O)Nc2nc3nc(-c4ccccc4)cc(=O)n3[nH]2)cc(OC)c1OC | inactive: 1.54% |
| Cc1ccc(SCc2nc(-c3ccc(C(=O)NCc4ccc(Cl)cc4)cc3)oc2C)cc1 | inactive: -16.3% |
| Cc1ccn2c(Nc3ccccc3C)c(-c3ccccn3)nc2c1 | inactive: -94.9% |
| COCCCNC(=O)C1CCCN(C(=O)c2cnn(-c3ccc(F)cc3)c2-n2cccc2)C1 (stereo not drawn) | inactive: 0.403% |
| Cc1cc(C)c(CSc2nnc(C)n3c2cc2occc23)c(C)c1 | inactive: -2.09% |
| CCN(Cc1ccccc1)C(=O)c1nc(-c2cccc(F)c2)n2c1CCCCC2 | inactive: -24.7% |
| COc1ccc(CNC(=O)c2cc3c(=O)[nH]c4ccccc4c3s2)cc1 | inactive: 13.4% |
| Cc1cccc(N2CCN(C(=O)NCc3noc4ccccc34)CC2)c1C | inactive: -24.8% |
| CCOC(=O)c1ccccc1NC(=O)CCOc1ccccc1 | inactive: -21.6% |
| O=C(CCN1CCN(CCO)CC1)N1c2ccccc2Sc2ccc(C(F)(F)F)cc21 | inactive: -5.53% |
| OCCCc1nc2ccccc2n1CCCCOc1ccccc1 | inactive: 12.5% |
| Cc1cccc(-c2noc(CN(C(=O)COc3ccc(Br)cc3C)C(C)C)n2)c1 | inactive: -2.53% |
| COc1ccccc1CNC(=O)C(=O)NCC(c1ccco1)S(=O)(=O)c1cccs1 (stereo not drawn) | inactive: -13.6% |
| O=C(NC1CCCCC1)c1cc2c(Cl)nc3ccccc3c2s1 | inactive: 4.14% |
| CCOc1ccc(NC(=O)C(NS(=O)(=O)c2cccc3nsnc23)c2ccccc2)cc1 (stereo not drawn) | inactive: -37.5% |
| COc1ccc(Cl)cc1NC(=O)Cn1c(=O)n(Cc2ccco2)c(=O)c2cccnc21 | inactive: -4.6% |
| CCn1cc(C(=O)N2CCN(c3cc(C)ccc3C)CC2)c(=O)c2cc(S(=O)(=O)N3CCOCC3)ccc21 | inactive: -1.9% |
| CCn1c(=O)n(CC)c2cc(N3CCCCC3)c(NC(=O)Nc3cc(C)cc(C)c3)cc21 | inactive: -20% |
| CCOC(=O)c1c(N)n(-c2cccc(OC)c2)c2nc3ccccc3nc12 | inactive: 1.52% |
| COc1ccc(C(=O)NCCn2cc(SCC(=O)Nc3cccc(C)c3)c3ccccc32)cc1 | inactive: 39.5% |

| SMILES | activation |
| --- | --- |
| CCOC(=O)C1CCN(C(=O)Cn2c(=O)cc(C)c3c(C)nn(C)c32)CC1 | inactive: 42% |
| Cc1oc2ncn(CC(C)C)c(=O)c2c1C(=O)N1CCN(c2cccc(C(F)(F)F)c2)CC1 | inactive: -4.74% |
| COCCc1nn2c(=O)cc(COC(=O)c3ccc(OC)c(OC)c3)nc2s1 | inactive: -9.96% |
| Cc1ccc(C)n1-c1c(C(=O)NCCC(C)C)sc2ncccc12 | inactive: 2.98% |
| Cc1cccc(-n2ncc3c(Nc4ccc(Oc5ccc(Cl)cc5)cc4)ncnc32)c1 | inactive: 48% |
| COc1cc(-c2nc3nc[nH]n3c2Nc2ccc(C(C)C)cc2)ccc1O | inactive: -19% |
| CCc1nn(-c2ccccc2)c2nc(-c3cccc(OC)c3)c3cc(OC)c(OC)cc3c12 | inactive: -17.3% |
| COc1cccc(-n2c(=O)c3c(C)c(C(=O)N(C)C)sc3n(Cc3ccc(F)cc3Cl)c2=O)c1 | inactive: -14% |
| O=C(CCC1N=C2c3ccccc3N=C(SCc3ccccc3F)N2C1=O)NC1CCCCC1 (stereo not drawn) | inactive: -4.01% |
| CCOc1cc(C2C(C(=O)OC)=C(C)NC3=C2C(=O)c2ccccc23)cc(Cl)c1O (stereo not drawn) | inactive: -88.6% |
| Cc1ccc(-n2ncc3c(NCCCN4CCOCC4)ncnc32)cc1 | inactive: -12% |
| COc1ccc(NC(=O)CN(Cc2ccccc2)S(=O)(=O)c2ccc(C)cc2)cc1Cl | inactive: -5.33% |
| Fc1ccc(-c2nc(Nc3cccc(Cl)c3)nc3c2COc2ccccc2-3)cc1 | inactive: -6.12% |
| CCn1c2ccccc2c2nnc(N3CCN(c4cc(C)ccc4C)CC3)nc21 | inactive: -17.5% |
| COc1ccc(N2CCN(S(=O)(=O)c3ccc4c(c3)CC(C)N4C(C)=O)CC2)cc1 (stereo not drawn) | inactive: 12.2% |
| CCOc1ccccc1NC(=O)c1cc2c(Cl)nc3ccccc3c2s1 | inactive: 17.7% |
| COc1ccc(NC(=O)C2Cc3ccccc3N2C(=O)c2ccccc2)c(OC)c1 (stereo not drawn) | inactive: -18.5% |
| COc1ccc(N(Cc2cccs2)C(=O)COc2cccc(Cl)c2)cc1 | inactive: -17.8% |
| Cc1ccc(Cl)cc1NC(=O)c1oc2c(c1C)-c1[nH]ncc1CC2 | inactive: 5.94% |
| CCN(CCCNC(=O)c1c(C)oc2ncn(CC(C)C)c(=O)c12)Cc1ccccc1 | inactive: -3.69% |
